Over roughly 18,000 sequences, “TetR repression strength (sort-seq, GFP reporter)” has its median near 0.23; the highest 2% begin near 0.68. This is one part of the list.

The assay deals with TetR (class B, Tn10) (UniProt P04483). Put plainly: TetR repression strength (sort-seq, GFP reporter) (relative to tetO2 = 1); higher = stronger repression. To be noted: E. coli. The gist of the method: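 Three independent transformations of E. coli SIG10-MAX were made with a low-copy plasmid library randomizing eight operator positions between a constitutive promoter and sfGFP, with constitutive TetR. Following 5 h at 37 °C in LB plus 50 µg/mL chloramphenicol, 10^6 cells went through FACS into 13 fluorescence bins, and each bin was sequenced by Illumina. Repression strength was defined as the top bin index plus one minus the read-weighted mean bin, divided by the unaltered operator's value. Averages included only members reaching ≥30 reads in all replicates with a CV ≤0.5.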
Sequence of UniProt P04483 (P04483 whole entry): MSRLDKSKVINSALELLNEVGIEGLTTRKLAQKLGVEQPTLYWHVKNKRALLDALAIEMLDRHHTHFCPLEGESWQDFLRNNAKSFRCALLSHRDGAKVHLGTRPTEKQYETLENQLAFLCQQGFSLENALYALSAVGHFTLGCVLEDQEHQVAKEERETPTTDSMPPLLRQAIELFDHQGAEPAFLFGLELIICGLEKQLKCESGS
Take TCCCTTTCAGTTAGCGAGA: the TetR repression strength was 0.614.

The sequence TCCCTTAAAGTCTAAGAGA displayed a TetR repression strength of 0.539.

Turning to TCCCGGTTAGTGCGGGAGA, the TetR repression strength was 0.245.

On to TCCCGGGGAGTGGAGGAGA, for which the TetR repression strength stood at 0.31.

As to TCCCTCGGAGTGGAAGAGA, the TetR repression strength amounted to 0.296.

In turn, TCCCCGGTAGTGGTAGAGA returned a TetR repression strength of 0.118.

For TCCCTGCTAGTCCACGAGA, the TetR repression strength was 0.296.

The sequence TCCCCAACAGTATATGAGA showed a TetR repression strength of 0.434.

With TCCCGCATAGTTTTCGAGA, the TetR repression strength came out at 0.477.

Turning to TCCCTAACAGTTTGGGAGA, the TetR repression strength was 0.244.

Sequence TCCCGACCAGTTGATGAGA came in with a TetR repression strength of 0.401.

TCCCTGAGAGTTGGTGAGA registered a TetR repression strength of 0.164.

On to TCCCCCATAGTTGGGGAGA, for which the TetR repression strength worked out at 0.172.

As for TCCCATTCAGTTATAGAGA, the TetR repression strength stood at 0.596.

TCCCCTCTAGTGGGCGAGA registered a TetR repression strength of 0.318.

As for TCCCTAACAGTTGCGGAGA, the TetR repression strength came to 0.209.

The sequence TCCCTGGTAGTGGTGGAGA registered a TetR repression strength of 0.1.

In turn, TCCCTATCAGTTTTCGAGA returned a TetR repression strength of 0.523.

As for TCCCGGCTAGTTTCGGAGA, the TetR repression strength was 0.317.

The sequence TCCCATTTAGTAGGAGAGA returned a TetR repression strength of 0.157.

Take TCCCAGGGAGTACGAGAGA: the TetR repression strength is 0.209.

Consider TCCCGCGAAGTTAGCGAGA, for which the TetR repression strength turned out to be 0.15.

Take TCCCGATGAGTAGGCGAGA: the TetR repression strength amounted to 0.106.

In turn, TCCCCGTAAGTGTACGAGA registered a TetR repression strength of 0.16.

For TCCCAATTAGTGTTCGAGA, the TetR repression strength was 0.184.

Turning to TCCCGGCGAGTTTCCGAGA, the TetR repression strength was determined as 0.26.

The sequence TCCCTAGTAGTTCGGGAGA returned a TetR repression strength of 0.184.

The sequence TCCCGCGGAGTGTGGGAGA showed a TetR repression strength of 0.299.

TCCCGTAGAGTGAGTGAGA: the TetR repression strength turned out to be 0.271.

In the case of TCCCGGGGAGTACTCGAGA, the TetR repression strength stood at 0.206.

Sequence TCCCTTCGAGTTATAGAGA displayed a TetR repression strength of 0.248.

The sequence TCCCATATAGTAGGTGAGA showed a TetR repression strength of 0.43.

The sequence TCCCGTAAAGTAGAGGAGA had a TetR repression strength of 0.0749.

On to TCCCGCCGAGTAGGCGAGA, for which the TetR repression strength worked out at 0.34.

In turn, TCCCCAGGAGTGAGAGAGA showed a TetR repression strength of 0.0419.

Take TCCCGCTAAGTACGCGAGA: the TetR repression strength is 0.0193.

Regarding TCCCCGGAAGTGGTGGAGA, the TetR repression strength turned out to be 0.154.

For the sequence TCCCTGACAGTAGAGGAGA, the TetR repression strength was 0.109.

TCCCACCGAGTTTTTGAGA displayed a TetR repression strength of 0.46.

As to TCCCAATGAGTTGATGAGA, the TetR repression strength stood at 0.101.

Sequence TCCCCCTTAGTCTCAGAGA showed a TetR repression strength of 0.385.

Take TCCCGATGAGTGGAAGAGA: the TetR repression strength is 0.258.

For the sequence TCCCCAACAGTTTCCGAGA, the TetR repression strength turned out to be 0.443.

In the case of TCCCGGTGAGTTGGTGAGA, the TetR repression strength turned out to be 0.391.

Regarding TCCCGCGTAGTATTAGAGA, the TetR repression strength stood at 0.00942.

With TCCCATGGAGTCTGTGAGA, the TetR repression strength was 0.103.

Sequence TCCCGGTTAGTTCGAGAGA registered a TetR repression strength of 0.0821.

On to TCCCTAACAGTGTCTGAGA, for which the TetR repression strength worked out at 0.22.

As to TCCCTTGTAGTGGGGGAGA, the TetR repression strength turned out to be 0.469.

As for TCCCGGATAGTGTCGGAGA, the TetR repression strength turned out to be 0.141.

Sequence TCCCAAAGAGTGCTTGAGA registered a TetR repression strength of 0.267.

For TCCCAACGAGTGGGCGAGA, the TetR repression strength amounted to 0.0899.

On to TCCCTGTTAGTCGCTGAGA, for which the TetR repression strength worked out at 0.263.

TCCCGGGCAGTGAACGAGA gave a TetR repression strength of 0.369.

Turning to TCCCTAAAAGTATTTGAGA, the TetR repression strength came to 0.322.

TCCCGTCCAGTAATTGAGA returned a TetR repression strength of 0.274.

For TCCCACTCAGTGTAAGAGA, the TetR repression strength came out at 0.318.

TCCCGGGGAGTGACAGAGA had a TetR repression strength of 0.291.

Regarding TCCCAAATAGTCTTCGAGA, the TetR repression strength worked out at 0.0548.

Turning to TCCCGTCTAGTTGATGAGA, the TetR repression strength worked out at 0.278.

On to TCCCTATTAGTAATTGAGA, for which the TetR repression strength was 0.416.

As for TCCCATGTAGTTCTGGAGA, the TetR repression strength stood at 0.173.

TCCCGGCAAGTGTACGAGA yielded a TetR repression strength of 0.198.

TCCCAGTAAGTCAGGGAGA registered a TetR repression strength of 0.254.

With TCCCCATAAGTTTGTGAGA, the TetR repression strength is 0.146.

TCCCCGCGAGTTGGGGAGA: the TetR repression strength was 0.189.

In turn, TCCCTGTAAGTCAGCGAGA came in with a TetR repression strength of 0.494.

Take TCCCATGGAGTGGACGAGA: the TetR repression strength was determined as 0.146.

On to TCCCCGTCAGTGCTGGAGA, for which the TetR repression strength was determined as 0.224.

The sequence TCCCTGGAAGTGCAAGAGA came in with a TetR repression strength of 0.431.

With TCCCAAGCAGTGGCGGAGA, the TetR repression strength stood at 0.337.

TCCCAGGTAGTAGAGGAGA had a TetR repression strength of 0.264.

Take TCCCGAGTAGTTAACGAGA: the TetR repression strength was found to be 0.857.

Sequence TCCCTACTAGTAGGGGAGA displayed a TetR repression strength of 0.387.

TCCCATTAAGTCATCGAGA showed a TetR repression strength of 0.194.

On to TCCCCTAGAGTTGTGGAGA, for which the TetR repression strength is 0.344.

For the sequence TCCCGGGTAGTGTTGGAGA, the TetR repression strength came to 0.276.

Sequence TCCCGCCGAGTCCCGGAGA gave a TetR repression strength of 0.317.

As to TCCCCCTGAGTGAGGGAGA, the TetR repression strength stood at 0.127.

As to TCCCAGGCAGTCTCAGAGA, the TetR repression strength worked out at 0.106.

In turn, TCCCTCCAAGTGGGGGAGA yielded a TetR repression strength of 0.446.

Sequence TCCCCGCGAGTGGCTGAGA yielded a TetR repression strength of 0.193.

The sequence TCCCCATTAGTAAGGGAGA showed a TetR repression strength of 0.623.

TCCCGAGCAGTCCACGAGA: the TetR repression strength worked out at 0.138.

TCCCGCGCAGTATTTGAGA displayed a TetR repression strength of 0.497.

As for TCCCGGATAGTGGGGGAGA, the TetR repression strength worked out at 0.255.

Regarding TCCCGGATAGTACCGGAGA, the TetR repression strength worked out at 0.0744.

TCCCGAATAGTACAAGAGA gave a TetR repression strength of 0.258.

For the sequence TCCCTGGAAGTCGGAGAGA, the TetR repression strength came to 0.285.

TCCCAGTAAGTAGCCGAGA returned a TetR repression strength of 0.0168.

Sequence TCCCGCACAGTTGATGAGA returned a TetR repression strength of 0.00901.

TCCCTTTTAGTGTGCGAGA: the TetR repression strength was 0.415.

The sequence TCCCCAAGAGTTTTTGAGA came in with a TetR repression strength of 0.235.

Regarding TCCCGCTAAGTCCGGGAGA, the TetR repression strength amounted to 0.188.

With TCCCGGTTAGTAGAAGAGA, the TetR repression strength is 0.282.

TCCCACCGAGTCTGGGAGA had a TetR repression strength of 0.222.

Regarding TCCCGCATAGTGACGGAGA, the TetR repression strength stood at 0.099.

TCCCTGTAAGTTGCCGAGA: the TetR repression strength is 0.181.

The sequence TCCCGATTAGTTAAGGAGA yielded a TetR repression strength of 0.332.

TCCCCACGAGTCTGCGAGA: the TetR repression strength was 0.578.

Turning to TCCCGCTGAGTGAGGGAGA, the TetR repression strength worked out at 0.271.

With TCCCGGGTAGTTAGTGAGA, the TetR repression strength was 0.166.

Turning to TCCCGTGTAGTAGGCGAGA, the TetR repression strength is 0.192.

Regarding TCCCTACTAGTTCAAGAGA, the TetR repression strength stood at 0.426.

For TCCCTAGCAGTAGGGGAGA, the TetR repression strength was 0.189.

On to TCCCTATCAGTGGCGGAGA, for which the TetR repression strength was 0.715.

Sequence TCCCGGGGAGTGGACGAGA had a TetR repression strength of 0.228.

On to TCCCTCCGAGTCCATGAGA, for which the TetR repression strength was determined as 0.347.

TCCCTTTCAGTTGATGAGA had a TetR repression strength of 0.235.

As to TCCCAGCAAGTCAGAGAGA, the TetR repression strength turned out to be 0.211.

For TCCCATTAAGTGTAAGAGA, the TetR repression strength is 0.298.

The sequence TCCCATTGAGTCTGGGAGA registered a TetR repression strength of 0.404.

As to TCCCCATAAGTGGGTGAGA, the TetR repression strength is 0.104.

TCCCCGCCAGTCAGGGAGA: the TetR repression strength is 0.0339.

Regarding TCCCACCTAGTGCGTGAGA, the TetR repression strength was determined as 0.243.

In turn, TCCCAGGTAGTGGGGGAGA yielded a TetR repression strength of 0.143.

As for TCCCACGCAGTGGGGGAGA, the TetR repression strength was determined as 0.188.

As to TCCCGTAGAGTGCGAGAGA, the TetR repression strength came to 0.199.

TCCCCTACAGTACTGGAGA returned a TetR repression strength of 0.218.

The sequence TCCCTCAAAGTGCAAGAGA had a TetR repression strength of 0.537.

TCCCCTTGAGTACCGGAGA returned a TetR repression strength of 0.191.

With TCCCGTATAGTGGGAGAGA, the TetR repression strength worked out at 0.281.

In turn, TCCCTTTAAGTCTTCGAGA returned a TetR repression strength of 0.377.

TCCCAGGAAGTAAGGGAGA had a TetR repression strength of 0.147.

TCCCTGCGAGTCGCAGAGA returned a TetR repression strength of 0.176.

In turn, TCCCCTTCAGTATCGGAGA had a TetR repression strength of 0.28.

As for TCCCCCGAAGTGGCAGAGA, the TetR repression strength worked out at 0.412.

As for TCCCCACAAGTCTGAGAGA, the TetR repression strength stood at 0.299.

With TCCCTCATAGTGGATGAGA, the TetR repression strength is 0.245.

In turn, TCCCACGCAGTCTCGGAGA came in with a TetR repression strength of 0.172.

The record behind these values is a collection of fitness landscapes (doi:10.1038/s41467-024-54723-y).
